PMC3185033
Results are given in words; binding and its absence hold for the method and conditions named. For part of these data: Binding seen in cells or lysates may run through a third protein. Some results given as binding are weak or reduced against the parent protein; the word gives no strength.

Chains of the proteins cited; added tags and fusions are not shown. Lines headed by an entry give the natural chain unless they say otherwise; changes in a name come on top. A line that says so, or that is headed by a name, gives the form on record, which may keep a tag or linker. Residues count along the entry.
UniProt P48432: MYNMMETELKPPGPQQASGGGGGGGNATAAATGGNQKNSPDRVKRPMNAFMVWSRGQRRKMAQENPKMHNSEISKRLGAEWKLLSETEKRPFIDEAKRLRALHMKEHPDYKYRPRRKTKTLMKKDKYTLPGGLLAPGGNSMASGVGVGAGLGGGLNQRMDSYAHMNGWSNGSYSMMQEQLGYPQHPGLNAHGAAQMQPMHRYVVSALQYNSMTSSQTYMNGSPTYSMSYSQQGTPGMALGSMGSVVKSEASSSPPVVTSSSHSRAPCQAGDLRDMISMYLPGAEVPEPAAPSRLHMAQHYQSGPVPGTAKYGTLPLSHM
UniProt Q7M6Y2: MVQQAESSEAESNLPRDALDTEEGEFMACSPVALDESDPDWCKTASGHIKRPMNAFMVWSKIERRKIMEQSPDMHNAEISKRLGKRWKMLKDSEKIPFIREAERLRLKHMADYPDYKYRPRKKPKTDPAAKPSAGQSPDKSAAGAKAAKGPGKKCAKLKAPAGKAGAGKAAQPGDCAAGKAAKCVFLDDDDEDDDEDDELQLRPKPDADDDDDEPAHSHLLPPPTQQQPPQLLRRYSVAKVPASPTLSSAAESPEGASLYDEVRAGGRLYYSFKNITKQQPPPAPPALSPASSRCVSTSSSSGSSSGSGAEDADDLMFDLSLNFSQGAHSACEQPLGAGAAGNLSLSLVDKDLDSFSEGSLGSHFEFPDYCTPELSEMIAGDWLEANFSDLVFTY
GST-tagged HMG box fragment of Sox11 (38–130 a.a.): residues 38-130 of Q7M6Y2
UniProt Q04887: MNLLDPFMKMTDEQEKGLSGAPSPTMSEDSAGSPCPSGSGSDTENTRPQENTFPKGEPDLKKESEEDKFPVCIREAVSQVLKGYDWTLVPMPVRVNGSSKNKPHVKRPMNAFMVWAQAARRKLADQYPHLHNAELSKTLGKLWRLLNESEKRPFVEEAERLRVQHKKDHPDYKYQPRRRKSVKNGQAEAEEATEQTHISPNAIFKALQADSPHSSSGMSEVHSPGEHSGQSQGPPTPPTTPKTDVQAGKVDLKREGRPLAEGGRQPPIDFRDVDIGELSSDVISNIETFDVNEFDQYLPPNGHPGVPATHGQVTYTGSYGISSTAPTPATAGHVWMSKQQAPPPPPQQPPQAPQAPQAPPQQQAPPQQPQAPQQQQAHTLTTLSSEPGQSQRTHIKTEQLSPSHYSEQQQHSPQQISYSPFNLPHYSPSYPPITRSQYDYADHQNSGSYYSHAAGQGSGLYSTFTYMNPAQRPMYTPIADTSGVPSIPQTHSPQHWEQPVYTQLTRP
GST-fused Sox9 region #1 (1–99 a.a.): residues 1-99 of Q04887
GST-fused Sox9 region #2 (95–186 a.a.), HMG box domain: residues 95-186 of Q04887
GST-fused Sox9 region #3 (173–399 a.a.): residues 173-399 of Q04887
GST-fused Sox9 region #4 (336–507 a.a.): residues 336-507 of Q04887
UniProt P48436: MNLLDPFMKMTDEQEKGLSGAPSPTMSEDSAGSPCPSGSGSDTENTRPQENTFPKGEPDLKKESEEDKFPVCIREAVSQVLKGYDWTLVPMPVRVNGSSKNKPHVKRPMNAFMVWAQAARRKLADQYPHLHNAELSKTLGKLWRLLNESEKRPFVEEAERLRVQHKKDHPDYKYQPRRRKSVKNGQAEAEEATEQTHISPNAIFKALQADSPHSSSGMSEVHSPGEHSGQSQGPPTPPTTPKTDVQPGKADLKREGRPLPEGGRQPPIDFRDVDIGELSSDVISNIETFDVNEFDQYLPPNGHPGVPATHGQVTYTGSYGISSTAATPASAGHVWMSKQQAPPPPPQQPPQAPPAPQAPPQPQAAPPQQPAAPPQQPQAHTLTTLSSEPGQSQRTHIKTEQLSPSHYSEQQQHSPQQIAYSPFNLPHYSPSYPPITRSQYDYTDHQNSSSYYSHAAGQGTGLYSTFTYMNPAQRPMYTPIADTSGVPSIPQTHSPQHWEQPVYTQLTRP
UniProt Q9C0E2: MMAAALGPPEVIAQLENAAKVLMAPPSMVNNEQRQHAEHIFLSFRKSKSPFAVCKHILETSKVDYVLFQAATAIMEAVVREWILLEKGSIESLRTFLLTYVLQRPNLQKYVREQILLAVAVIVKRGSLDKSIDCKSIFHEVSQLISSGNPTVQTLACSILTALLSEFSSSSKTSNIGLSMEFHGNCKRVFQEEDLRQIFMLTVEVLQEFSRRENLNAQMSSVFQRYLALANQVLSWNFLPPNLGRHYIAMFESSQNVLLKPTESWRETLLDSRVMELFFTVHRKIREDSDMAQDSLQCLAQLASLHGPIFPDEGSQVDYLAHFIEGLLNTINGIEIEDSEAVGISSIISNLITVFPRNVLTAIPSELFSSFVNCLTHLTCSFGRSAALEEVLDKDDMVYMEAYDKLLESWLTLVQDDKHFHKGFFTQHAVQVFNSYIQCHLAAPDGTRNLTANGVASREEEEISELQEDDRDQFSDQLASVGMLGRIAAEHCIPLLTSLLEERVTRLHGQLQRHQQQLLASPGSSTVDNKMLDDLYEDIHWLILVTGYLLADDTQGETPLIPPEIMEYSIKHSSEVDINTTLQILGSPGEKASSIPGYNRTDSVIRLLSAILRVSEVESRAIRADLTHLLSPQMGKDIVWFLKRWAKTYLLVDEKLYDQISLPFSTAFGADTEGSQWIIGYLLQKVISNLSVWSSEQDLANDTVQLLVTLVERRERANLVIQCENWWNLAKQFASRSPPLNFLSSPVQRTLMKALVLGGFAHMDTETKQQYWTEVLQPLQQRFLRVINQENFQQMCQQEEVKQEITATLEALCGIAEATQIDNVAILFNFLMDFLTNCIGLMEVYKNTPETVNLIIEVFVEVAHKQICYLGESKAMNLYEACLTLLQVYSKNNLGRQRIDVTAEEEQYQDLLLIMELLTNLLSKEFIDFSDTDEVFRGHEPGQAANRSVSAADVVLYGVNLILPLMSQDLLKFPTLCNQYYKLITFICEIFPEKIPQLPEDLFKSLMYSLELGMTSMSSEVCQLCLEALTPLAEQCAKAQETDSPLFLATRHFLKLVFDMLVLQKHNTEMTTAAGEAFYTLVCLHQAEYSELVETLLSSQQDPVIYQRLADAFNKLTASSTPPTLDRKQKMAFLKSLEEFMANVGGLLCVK

Columns and labels:
[1] = molecular target: HA-tagged mouse Sox2 (mouse) (UniProt P48432); test: co-IP; HEK293 cells co-transfected with HA-Sox and FLAG-Exp4 for 36 hr; lysate, anti-HA (12CA5) on protein A-Sepharose; Western blot with anti-Exp4 and anti-HA
[2] = molecular target: HA-tagged mouse Sox11 (mouse) (UniProt Q7M6Y2); test: as above
HA-tagged Sox9 (mouse) = HA-tagged Sox9 (mouse) (UniProt Q04887); test: as above
[3] = molecular target: GST-tagged HMG box fragment of Sox11 (38–130 a.a.) (mouse) (UniProt Q7M6Y2); test: pull-down; GST-fused HMG box fragments incubated with purified recombinant FLAG-Exp4 and glutathione Sepharose 2 hr at 4°C; Western blot with anti-Exp4; no RanGTP; both purified
[4] = molecular target: Sox9, endogenous in U2OS nuclear extract (human (endogenous in U2OS)) (UniProt P48436); test: co-IP; U2OS nuclear extract, anti-Sox9 antibody 1 hr at 4°C, protein A-Sepharose; Western blot with anti-Exp4; normal rabbit IgG as control
[5] = molecular target: GST-fused Sox9 region #4 (336–507 a.a.) (mouse) (UniProt Q04887); test: pull-down; GST-fused Sox9 fragments on glutathione-Sepharose incubated with HeLa nuclear extract 2 hr at 4°C; Western blot with anti-Exp4; only the target purified
[6] = molecular target: GST-fused Sox9 region #3 (173–399 a.a.) (mouse) (UniProt Q04887); test: as above
[7] = molecular target: GST-fused Sox9 region #2 (95–186 a.a.), HMG box domain (mouse) (UniProt Q04887); test: as above
[8] = molecular target: GST-fused Sox9 region #1 (1–99 a.a.) (mouse) (UniProt Q04887); test: as above

FLAG-Exp4 expressed in HEK293 cells (from UniProt Q9C0E2 1-1151)
binding [1]: binds
binding [2]: no binding
binding (HA-tagged Sox9 (mouse)): binds

purified recombinant FLAG-Exp4 protein (from UniProt Q9C0E2 1-1151)
binding [3]: no binding

exportin 4 (Exp4), endogenous in U2OS nuclear extract (from UniProt Q9C0E2 1-1151)
binding [4]: binds

exportin 4 (Exp4), endogenous in HeLa nuclear extract (from UniProt Q9C0E2 1-1151)
binding [5]: no binding
binding [6]: no binding
binding [7]: binds
binding [8]: no binding
